Assay results reported in the supplement of paper PMC11417369.
± gives the standard deviation of the averaged measurements. Some of the results follow.

These sequences were tested on PfAP2-EXP AP2 domain (GST-tagged) (assay: gcPBM binding intensity (ln(normalized median fluorescence intensity)); higher = stronger DNA binding).
Summary of the method: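 The highest Masliner-normalised natural-log median intensity across replicate spots of either probe orientation is reported as binding intensity. GST-tagged P. falciparum DNA-binding domains expressed in E. coli were applied for 1 h to an Agilent 4 × 180k array of primer-extended double-stranded 36-bp intergenic genomic probes plus negative controls, and bound protein was detected with Alexa488 anti-GST antibody and scanned at 488 nm.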
With “AAAAAAAAAAAGAACTCACACATAATAATGTATATG [CACACA_site4974]” the “gcPBM binding intensity (ln)” value was 8.2 ± 0.59.
With “AAAGGAGACAGAATAAGAATAAATATTATACATATA [XGTACX_negctrl_site412]” the “gcPBM binding intensity (ln)” value was 8.46 ± 0.45.
In the case of “TATTAGTCGAATGATGTACACACATACAAAACATTT [CACACA_site9331]”, the “gcPBM binding intensity (ln)” value is reported as 8.61 ± 0.35.
In the case of “ATTTAAAAAAAAATGGCACACATTTTAATTTTATGT [CACACA_site1740]”, the “gcPBM binding intensity (ln)” value is reported as 8.16 ± 0.31.
With “TTGTGTCATATATTTTGTAATCAAAATAATTTTATT [TGCATGCA_negctrl_site307]” the “gcPBM binding intensity (ln)” value was 8.15 ± 0.042.
“TTTTTGTTTCGTTACGCATGCCAAAAGTAAAAATAT [TGCATGCA_site536]” was tested, and the “gcPBM binding intensity (ln)” value was 9.59 ± 0.3.
In the case of “TTTTTAATGATCAGACGTACAGTTATGAAGAAATTT [XGTACX_site6394]”, the “gcPBM binding intensity (ln)” value is reported as 8.86 ± 0.31.
For “ATAATGTTCCTATGATGTACTTATAATTATCATTTT [XGTACX_site4017]”, the “gcPBM binding intensity (ln)” value was 8.73 ± 0.45.
With “AAGAGGTTATTACATTCACATAACATCAATATACGT [GTGCAC_negctrl_site264]” the “gcPBM binding intensity (ln)” value was 8.51 ± 0.49.
“TATTGTTCGTTTAAGGTGCTATTGTTTGCAAAATAT [GTGCAC_site9412]” was tested, and the “gcPBM binding intensity (ln)” value was 8.95 ± 0.45.
With “ATTAAAATAATATAAACACACATATACTTTTTTCTA [CACACA_site565]” the “gcPBM binding intensity (ln)” value was 8.19 ± 0.36.
In the case of “TGGGAAAACCCCAGAAGTACGCTTAATATAAAAAAT [XGTACX_site697]”, the “gcPBM binding intensity (ln)” value is reported as 8.54 ± 0.48.
In the case of “CTATTATTTTTAAATTGTACTATAACAAAATGTATA [XGTACX_site3916]”, the “gcPBM binding intensity (ln)” value is reported as 8.23 ± 0.3.
With “TTTATATTTATATAAATATAATATATATGAATTATA [XGTACX_negctrl_site466]” the “gcPBM binding intensity (ln)” value was 8.19 ± 0.51.
For “AAATAAATCTATAATACACACAAAAATATAAAATGC [CACACA_site7700]”, the “gcPBM binding intensity (ln)” value was 8.84 ± 0.49.
“ATATATATGTTTTATAGTACACACATAAATGGACAT [XGTACX_site4538]” was tested, and the “gcPBM binding intensity (ln)” value was 8.68 ± 0.4.
In the case of “ATAACTTGTATATATACACACACACCCTTTCTTTTT [CACACA_site8600]”, the “gcPBM binding intensity (ln)” value is reported as 9.01 ± 0.5.
With “TATATTATATTATACATACACACCCATATAATATGT [CACACA_site869]” the “gcPBM binding intensity (ln)” value was 8.81 ± 0.45.
With “TTAAGAAATAACAATGCACACATTTAGGTCTTTTAT [CACACA_site3285]” the “gcPBM binding intensity (ln)” value was 8.44 ± 0.41.
In the case of “CTTCAATATATTCTTACACACTTAAAAAAAAAAATA [CACACA_site4287]”, the “gcPBM binding intensity (ln)” value is reported as 8.27 ± 0.38.
For “TTAGATATGTGTAAGGGTACAAAATACTTTACATTT [XGTACX_site8204]”, the “gcPBM binding intensity (ln)” value was 8.25 ± 0.37.
“AATAGGAAGACTATTTTGTATTTGATTTTTTATTCC [GTGCAC_negctrl_site453]” was tested, and the “gcPBM binding intensity (ln)” value was 8.45 ± 0.55.
In the case of “CATTCAATTGAAAAATGTACAAAAATAAACATATGC [XGTACX_site1663]”, the “gcPBM binding intensity (ln)” value is reported as 9.05 ± 0.52.
“TAAGTATACGCATACACACACACACCCAAAAAAAAA [CACACA_site425]” was tested, and the “gcPBM binding intensity (ln)” value was 8.69 ± 0.65.
With “GTTCCAGGCATTCGTGCGCACAAATAGAAACAATTA [GTGCAC_site9824]” the “gcPBM binding intensity (ln)” value was 9.19 ± 0.22.
For “ATAATATATGAGCAATGTACATATTTCTCATTGCAC [XGTACX_site2253]”, the “gcPBM binding intensity (ln)” value was 8.56 ± 0.38.
“TTTCTATATTGGCATACATGCAAGAACGAAAAGATT [TGCATGCA_site117]” was tested, and the “gcPBM binding intensity (ln)” value was 8.93 ± 0.35.
In the case of “TAAAAATTGCACAGAAGTACAGTATAAATATATATA [XGTACX_site3421]”, the “gcPBM binding intensity (ln)” value is reported as 8.6 ± 0.31.
“TAAACATACCTATACACACACACACGCACACGCACA [CACACA_site6372]” was tested, and the “gcPBM binding intensity (ln)” value was 8.74 ± 0.46.
With “GTTGAACATATATGCACACACATAAAATAAAAAAAA [CACACA_site2413]” the “gcPBM binding intensity (ln)” value was 8.64 ± 0.39.
In the case of “TTGTGAAACATCAAGAAAAAGAAATAATAAAAAGAA [GTGCAC_negctrl_site38]”, the “gcPBM binding intensity (ln)” value is reported as 8.87 ± 0.54.
With “TTATATTAATATATATGTACATATATTTTTTTTATA [XGTACX_site6981]” the “gcPBM binding intensity (ln)” value was 8.57 ± 0.42.
With “ATACAACAATGTGAATTATATATGGATGGAGAATGA [GTGCAC_negctrl_site148]” the “gcPBM binding intensity (ln)” value was 8.81 ± 0.52.
“TCTTTTTTTTTTTTTTTTTTTTTTTATTTATTCATA [CACACA_negctrl_site1827]” was tested, and the “gcPBM binding intensity (ln)” value was 8.29 ± 0.57.
In the case of “AAAAGGTATCCACATACGCACACCAAAAAAAAAAAT [CACACA_site347]”, the “gcPBM binding intensity (ln)” value is reported as 8.37 ± 0.47.
With “TTCTTAAGGAACGAACGTACAGAATAAAAAGTAAAA [XGTACX_site4294]” the “gcPBM binding intensity (ln)” value was 8.79 ± 0.52.
For “ACGTAAGCGAATAAAAGTACATATATTAAAAAAAAA [XGTACX_site4458]”, the “gcPBM binding intensity (ln)” value was 8.62 ± 0.43.
With “AATAGAATGTAATATACACACATATATTTCTCTTTT [CACACA_site2630]” the “gcPBM binding intensity (ln)” value was 8.15 ± 0.36.
“TATATATATATATATTGTACACATTGTGTTTAAATA [XGTACX_site5104]” was tested, and the “gcPBM binding intensity (ln)” value was 10 ± 0.43.
With “TTGTAACCTATGCACGCACACAAGAAAAAAACAAAA [CACACA_site3775]” the “gcPBM binding intensity (ln)” value was 8.64 ± 0.33.
“TTTTTATTGTTAATTTTAATTTTTTTTTTTTAATGC [CACACA_negctrl_site162]” was tested, and the “gcPBM binding intensity (ln)” value was 8.14 ± 0.42.
For “TATTCCAAATTTACTAGTACATAATCCATCCGATAA [XGTACX_site1558]”, the “gcPBM binding intensity (ln)” value was 8.46 ± 0.46.
With “TATTACACATATTATACACACATATATTATAGATAT [CACACA_site6839]” the “gcPBM binding intensity (ln)” value was 8.54 ± 0.38.
In the case of “TTTCTTTTTAAATGCTGTACAAAGGGTGACGTTAAA [XGTACX_site4724]”, the “gcPBM binding intensity (ln)” value is reported as 8.74 ± 0.42.
